# The other results are listed elsewhere or left out.
# Legend:
# Assay in all cases: glycan array binding signal (z-score within array); higher = stronger binding
# Conditions in all cases: glycan notation: IUPAC condensed, linker removed
# Glc(a1-4)Glc = biological target: Glc(a1-4)Glc
# In short: (§1)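 Arrays were curated from the Consortium for Functional Glycomics database, 3228 in total, and kept only where the protein sequence was available. Binding is expressed as a within-array Z-score. This score was averaged across arrays of the same protein sequence at different concentrations or buffers and across linkers, and negative values can be read as non-binding.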
# [1] = biological target: Glc(a1-4)Glc(a1-4)Glc(a1-4)Glc
# In short: as §1
# Glc(a1-6)Glc(a1-6)Glc = biological target: Glc(a1-6)Glc(a1-6)Glc
# In short: as §1
# [2] = biological target: Glc(a1-6)Glc(a1-6)Glc(a1-6)Glc
# In short: as §1
# Glc(b1-4)Glc = biological target: Glc(b1-4)Glc
# In short: as §1
# Glc(b1-6)Glc = biological target: Glc(b1-6)Glc
# In short: as §1
# GlcA(b1-3)Gal = biological target: GlcA(b1-3)Gal
# In short: as §1
# GlcA(b1-3)GlcNAc = biological target: GlcA(b1-3)GlcNAc
# In short: as §1
# GlcA(b1-6)Gal = biological target: GlcA(b1-6)Gal
# In short: as §1
# [3] = biological target: GlcNAc(a1-3)Gal(b1-4)GlcNAc
# In short: as §1
# [4] = biological target: GlcNAc(a1-4)Gal(b1-3)GlcNAc
# In short: as §1
# [5] = biological target: GlcNAc(a1-4)Gal(b1-4)GalNAc
# In short: as §1
# [6] = biological target: GlcNAc(a1-4)Gal(b1-4)GlcNAc
# In short: as §1
# [7] = biological target: GlcNAc(a1-4)Gal(b1-4)GlcNAc(b1-3)Gal(b1-4)Glc
# In short: as §1
# [8] = biological target: GlcNAc(a1-4)Gal(b1-4)GlcNAc(b1-3)Gal(b1-4)GlcNAc
# In short: as §1
# [9] = biological target: GlcNAc(a1-4)Gal(b1-4)GlcNAc(b1-3)Gal(b1-4)GlcNAc(b1-3)Gal(b1-4)GlcNAc
# In short: as §1
# [10] = biological target: GlcNAc(a1-4)Gal(b1-4)GlcNAc(b1-3)Gal(b1-4)[Fuc(a1-3)]GlcNAc(b1-3)Gal(b1-4)[Fuc(a1-3)]GlcNAc
# In short: as §1
# [11] = biological target: GlcNAc(a1-6)Gal(b1-4)GlcNAc
# In short: as §1
# [12] = biological target: GlcNAc(b1-2)Gal(b1-3)GalNAc
# In short: as §1
# [13] = biological target: GlcNAc(b1-2)Man(a1-3)[GlcNAc(b1-2)Man(a1-6)]Man(b1-4)GlcNAc(b1-4)GlcNAc
# In short: as §1
# [14] = biological target: GlcNAc(b1-2)Man(a1-3)[GlcNAc(b1-2)Man(a1-6)]Man(b1-4)GlcNAc(b1-4)[Fuc(a1-6)]GlcNAc
# In short: as §1
# [15] = biological target: GlcNAc(b1-2)Man(a1-3)[GlcNAc(b1-4)][GlcNAc(b1-2)Man(a1-6)]Man(b1-4)GlcNAc(b1-4)GlcNAc
# In short: as §1
# [16] = biological target: GlcNAc(b1-2)[GlcNAc(b1-4)]Man(a1-3)[GlcNAc(b1-2)Man(a1-6)]Man(b1-4)GlcNAc(b1-4)GlcNAc
# In short: as §1
# [17] = biological target: GlcNAc(b1-2)[GlcNAc(b1-4)]Man(a1-3)[GlcNAc(b1-4)][GlcNAc(b1-2)Man(a1-6)]Man(b1-4)GlcNAc(b1-4)GlcNAc
# In short: as §1
# [18] = biological target: GlcNAc(b1-2)[GlcNAc(b1-4)]Man(a1-3)[GlcNAc(b1-4)][GlcNAc(b1-2)[GlcNAc(b1-6)]Man(a1-6)]Man(b1-4)GlcNAc(b1-4)GlcNAc
# In short: as §1
# [19] = biological target: GlcNAc(b1-2)[GlcNAc(b1-4)]Man(a1-3)[GlcNAc(b1-4)][GlcNAc(b1-2)[GlcNAc(b1-6)]Man(a1-6)]Man(b1-4)GlcNAc(b1-4)[Fuc(a1-6)]GlcNAc
# In short: as §1
# [20] = biological target: GlcNAc(b1-2)[GlcNAc(b1-6)]Man(a1-6)[GlcNAc(b1-2)Man(a1-3)]Man(b1-4)GlcNAc(b1-4)GlcNAc
# In short: as §1
# [21] = biological target: GlcNAc(b1-2)[GlcNAc(b1-6)]Man(a1-6)[GlcNAc(b1-2)Man(a1-3)]Man(b1-4)GlcNAc(b1-4)[Fuc(a1-6)]GlcNAc
# In short: as §1
# [22] = biological target: GlcNAc(b1-2)[GlcNAc(b1-6)]Man(a1-6)[GlcNAc(b1-2)Man(a1-3)][GlcNAc(b1-4)]Man(b1-4)GlcNAc(b1-4)GlcNAc
# In short: as §1
# GlcNAc(b1-3)Gal = biological target: GlcNAc(b1-3)Gal
# In short: as §1
# [23] = biological target: GlcNAc(b1-3)Gal(b1-3)GalNAc
# In short: as §1
# GlcNAc(b1-3)Gal(b1-4)Glc = biological target: GlcNAc(b1-3)Gal(b1-4)Glc
# In short: as §1
# [24] = biological target: GlcNAc(b1-3)Gal(b1-4)GlcNAc
# In short: as §1
# [25] = biological target: GlcNAc(b1-3)Gal(b1-4)GlcNAc(b1-3)Gal(b1-4)GlcNAc
# In short: as §1
# GlcNAc(b1-3)GalNAc = biological target: GlcNAc(b1-3)GalNAc
# In short: as §1
# GlcNAc(b1-3)Man = biological target: GlcNAc(b1-3)Man
# In short: as §1
# [26] = biological target: GlcNAc(b1-3)[GlcNAc(b1-4)][GlcNAc(b1-6)]GlcNAc
# In short: as §1
# [27] = biological target: GlcNAc(b1-3)[GlcNAc(b1-6)]Gal(b1-4)GlcNAc
# In short: as §1
# [28] = biological target: GlcNAc(b1-3)[GlcNAc(b1-6)]GalNAc
# In short: as §1
# [29] = biological target: GlcNAc(b1-4)Gal(b1-4)GlcNAc
# In short: as §1
# GlcNAc(b1-4)GlcNAc = biological target: GlcNAc(b1-4)GlcNAc
# In short: as §1
# [30] = biological target: GlcNAc(b1-4)GlcNAc(b1-4)GlcNAc
# In short: as §1
# [31] = biological target: GlcNAc(b1-4)GlcNAc(b1-4)GlcNAc(b1-4)GlcNAc(b1-4)GlcNAc
# In short: as §1
# [32] = biological target: GlcNAc(b1-4)GlcNAc(b1-4)GlcNAc(b1-4)GlcNAc(b1-4)GlcNAc(b1-4)GlcNAc
# In short: as §1
# [33] = biological target: GlcNAc(b1-4)[GlcNAc(b1-6)]GalNAc
# In short: as §1
binder,measurement,setting,value
SalT (Orysata sativa) (protein) MTLVKIGLWGGNGGSAQDISVPPKKLLGVTIYSSDAIRSIAFNYIGVDGQEYAIGPWGGGEGTSTEIKLGSSEHIKEISGTHGPVYDLADIVTYLKIVTSANNTYEAGVPNGKEFSIPLQDSGHVVGFFGRSGTLIDAIGIYVHPILEQKLISEEDLNSAVDHHHHHH,glycan array binding signal (z-score),Glc(a1-4)Glc,-0.308
same,glycan array binding signal (z-score),[1],-0.309
same,glycan array binding signal (z-score),Glc(a1-6)Glc(a1-6)Glc,-0.308
same,glycan array binding signal (z-score),[2],-0.309
same,glycan array binding signal (z-score),Glc(b1-4)Glc,-0.309
same,glycan array binding signal (z-score),Glc(b1-6)Glc,-0.31
same,glycan array binding signal (z-score),GlcA(b1-3)Gal,-0.309
same,glycan array binding signal (z-score),GlcA(b1-3)GlcNAc,-0.306
same,glycan array binding signal (z-score),GlcA(b1-6)Gal,-0.308
same,glycan array binding signal (z-score),[3],-0.308
same,glycan array binding signal (z-score),[4],-0.307
same,glycan array binding signal (z-score),[5],-0.302
same,glycan array binding signal (z-score),[6],-0.301
same,glycan array binding signal (z-score),[7],-0.304
same,glycan array binding signal (z-score),[8],-0.297
same,glycan array binding signal (z-score),[9],-0.307
same,glycan array binding signal (z-score),[10],-0.206
same,glycan array binding signal (z-score),[11],-0.301
same,glycan array binding signal (z-score),[12],-0.302
same,glycan array binding signal (z-score),[13],4.06
same,glycan array binding signal (z-score),[14],0.913
same,glycan array binding signal (z-score),[15],-0.002
same,glycan array binding signal (z-score),[16],-0.303
same,glycan array binding signal (z-score),[17],-0.307
same,glycan array binding signal (z-score),[18],-0.311
same,glycan array binding signal (z-score),[19],-0.308
same,glycan array binding signal (z-score),[20],2.4
same,glycan array binding signal (z-score),[21],0.996
same,glycan array binding signal (z-score),[22],-0.04
same,glycan array binding signal (z-score),GlcNAc(b1-3)Gal,-0.308
same,glycan array binding signal (z-score),[23],-0.307
same,glycan array binding signal (z-score),GlcNAc(b1-3)Gal(b1-4)Glc,-0.308
same,glycan array binding signal (z-score),[24],-0.305
same,glycan array binding signal (z-score),[25],-0.305
same,glycan array binding signal (z-score),GlcNAc(b1-3)GalNAc,-0.309
same,glycan array binding signal (z-score),GlcNAc(b1-3)Man,-0.302
same,glycan array binding signal (z-score),[26],-0.308
same,glycan array binding signal (z-score),[27],-0.31
same,glycan array binding signal (z-score),[28],-0.309
same,glycan array binding signal (z-score),[29],-0.307
same,glycan array binding signal (z-score),GlcNAc(b1-4)GlcNAc,-0.308
same,glycan array binding signal (z-score),[30],-0.311
same,glycan array binding signal (z-score),[31],-0.309
same,glycan array binding signal (z-score),[32],-0.311
same,glycan array binding signal (z-score),[33],-0.309
